Test results published in patent US20240076343A1.

B1: 1H3-hIgG1-L6-hIL-2 (D20A/Y45G) (protein)
heavy: EVQLVESGGGLVQPGRSLKLSCAVSGFTFSDYAMAWVRQAPKKGLEWVATISYDGSRTYYRDSVKGRFTISRDNAKITLYLQMDSLRSEDTATYYCARHGSGYFDYWGQGVMVTVSS[not shown - about 450 residues with a human IgG1 Fc and changes]
light: DTVLTQSPALAVSPGERVTISCRASESVRTGVHWYQQKPGQQPKLLIYGASNLESGVPARFSGSGSGTDFTLTIDPVEADDTATYFCQQSWNDPFTFGSGTKLEIKRTVAAPSVFIFPPSDEQLKSGTASVVCLLNNFYPREAKVQWKVDNALQSGNSQESVTEQDSKDSTYSLSSTLTLSKADYEKHKVYACEVTHQGLSSPVTKSFNRGEC
B2: 1H3-hIgG1-L6-hIL-2 (D20A/Y45H) (protein)
heavy: EVQLVESGGGLVQPGRSLKLSCAVSGFTFSDYAMAWVRQAPKKGLEWVATISYDGSRTYYRDSVKGRFTISRDNAKITLYLQMDSLRSEDTATYYCARHGSGYFDYWGQGVMVTVSS[not shown - about 450 residues with a human IgG1 Fc and changes]
light: B1 light
B3: 1H3-hIgG1-L6-hIL-2 (D20A/Y45I) (protein)
heavy: EVQLVESGGGLVQPGRSLKLSCAVSGFTFSDYAMAWVRQAPKKGLEWVATISYDGSRTYYRDSVKGRFTISRDNAKITLYLQMDSLRSEDTATYYCARHGSGYFDYWGQGVMVTVSS[not shown - about 450 residues with a human IgG1 Fc and changes]
light: B1 light
B4: 1H3-hIgG1-L6-hIL-2 (D20A/Y45L) (protein)
heavy: EVQLVESGGGLVQPGRSLKLSCAVSGFTFSDYAMAWVRQAPKKGLEWVATISYDGSRTYYRDSVKGRFTISRDNAKITLYLQMDSLRSEDTATYYCARHGSGYFDYWGQGVMVTVSS[not shown - about 450 residues with a human IgG1 Fc and changes]
light: B1 light
B5: 1H3-hIgG1-L6-hIL-2 (D20A/Y45M) (protein)
heavy: EVQLVESGGGLVQPGRSLKLSCAVSGFTFSDYAMAWVRQAPKKGLEWVATISYDGSRTYYRDSVKGRFTISRDNAKITLYLQMDSLRSEDTATYYCARHGSGYFDYWGQGVMVTVSS[not shown - about 450 residues with a human IgG1 Fc and changes]
light: B1 light
B6: 1H3-hIgG1-L6-hIL-2 (D20A/Y45F) (protein)
heavy: EVQLVESGGGLVQPGRSLKLSCAVSGFTFSDYAMAWVRQAPKKGLEWVATISYDGSRTYYRDSVKGRFTISRDNAKITLYLQMDSLRSEDTATYYCARHGSGYFDYWGQGVMVTVSS[not shown - about 450 residues with a human IgG1 Fc and changes]
light: B1 light
B7: 1H3-hIgG1-L6-hIL-2 (D20A/Y45P) (protein)
heavy: EVQLVESGGGLVQPGRSLKLSCAVSGFTFSDYAMAWVRQAPKKGLEWVATISYDGSRTYYRDSVKGRFTISRDNAKITLYLQMDSLRSEDTATYYCARHGSGYFDYWGQGVMVTVSS[not shown - about 450 residues with a human IgG1 Fc and changes]
light: B1 light
B8: 1H3-hIgG1-L6-hIL-2 (I92D/F42Q) (protein)
heavy: EVQLVESGGGLVQPGRSLKLSCAVSGFTFSDYAMAWVRQAPKKGLEWVATISYDGSRTYYRDSVKGRFTISRDNAKITLYLQMDSLRSEDTATYYCARHGSGYFDYWGQGVMVTVSS[not shown - about 450 residues with a human IgG1 Fc and changes]
light: B1 light
B9: 1H3-hIgG1-L6-hIL-2 (I92D/F42I) (protein)
heavy: EVQLVESGGGLVQPGRSLKLSCAVSGFTFSDYAMAWVRQAPKKGLEWVATISYDGSRTYYRDSVKGRFTISRDNAKITLYLQMDSLRSEDTATYYCARHGSGYFDYWGQGVMVTVSS[not shown - about 450 residues with a human IgG1 Fc and changes]
light: B1 light
B10: 1H3-hIgG1-L6-hIL-2 (I92D/F42K) (protein)
heavy: EVQLVESGGGLVQPGRSLKLSCAVSGFTFSDYAMAWVRQAPKKGLEWVATISYDGSRTYYRDSVKGRFTISRDNAKITLYLQMDSLRSEDTATYYCARHGSGYFDYWGQGVMVTVSS[not shown - about 450 residues with a human IgG1 Fc and changes]
light: B1 light
B11: 1H3-hIgG1-L6-hIL-2 (I92D/F42T) (protein)
heavy: EVQLVESGGGLVQPGRSLKLSCAVSGFTFSDYAMAWVRQAPKKGLEWVATISYDGSRTYYRDSVKGRFTISRDNAKITLYLQMDSLRSEDTATYYCARHGSGYFDYWGQGVMVTVSS[not shown - about 450 residues with a human IgG1 Fc and changes]
light: B1 light

Target: high-affinity hIL-2 receptor (IL-2Rαβγ) (human) (UniProt P01589)
Experiment: cell-based or functional assay

Binder	Fold change from hIL-2 (NK-92), pSTAT5 fixed conc. [fold]	Fold change from rhIL-2 (NK-92), pSTAT5 titration [fold]
B1	18	
B2	16	
B3	13	
B4	13	
B5	16	
B6	13	
B7	25	
B8	29	> 10000
B9	31	> 10000
B10	26	> 10000
B11	28	> 10000

Target: high-affinity hIL-2 receptor (IL-2Rαβγ) on NK-92 cells (human) (UniProt P01589)
Experiment: cell-based or functional assay

Binder	Agonistic Activity (NK-92) [%]	Fold change from rhIL-2 (NK-92) [fold]
B1	80	613
B2	70	420
B3	70	39
B4		11
B5		107
B6	90	25
B7		577
B8	30	7230
B9	10	4590
B10	20	> 10000
B11	40	> 10000

Target: intermediate affinity hIL-2 receptor (hIL-2Rβγ) on TF1+IL-2Rβ cells (human) (UniProt P14784)
Experiment: cell-based or functional assay

Binder	Agonistic Activity (TF1 + IL-2Rβ) [%]	Fold change from rhIL-2 (TF1 + IL-2Rβ) [fold]
B1	60	392
B2	60	427
B3	30	137
B4	70	426
B5	60	449
B6	50	272
B7		710
B8		872
B9		3640
B10		848
B11		1070

Target: intermediate affinity hIL-2 receptor complex (IL-2Rβγ) (human) (UniProt P14784)
Experiment: cell-based or functional assay

Binder	Fold change from hIL-2 (TF1 + IL-2Rβ), pSTAT5 fixed conc. [fold]	Fold change from rhIL-2 (TF1 + IL-2Rβ), pSTAT5 titration [fold]
B1	2	
B2	2	
B3	2	
B4	2	
B5	3	
B6	2	
B7	4	
B8	4	24
B9	4	117
B10	4	58
B11	3	> 10000
